# Source: the supplement of paper PMC10037445
# The full ranking holds about 2,900 compounds; the median of “IRF Lucia reporter activity, fold change vs agonist alone” is about 0.9, and the highest 2% start at about 2.8. The list shows a part of the results.
# Tests used:
# RAW-Dual [1] = assay: IRF Lucia reporter activity, fold change vs agonist alone; cytotoxicity flag (confluency mask): cytotoxic (confluency <70% of control); higher = enhanced IRF activity
# In short: (§1)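 Library stock was pin-tooled at 50 nL into 384-well plates of RAW-Dual macrophages (50,000 cells/well, DMEM), followed 1 h later by a PRR agonist, and the cells were kept at 37 °C, 5% CO2. Supernatant collected after 20 hours was read for IRF by QuantiLuc luminescence and for NF-κB by QuantiBlue absorbance at 620 nm. Reporter activity is fold change over agonist-alone wells, and a well counted as cytotoxic when its IncuCyte confluency was below 70% of agonist controls in both mask sets.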
# RAW-Dual [2] = assay: IRF Lucia reporter activity, fold change vs agonist alone; cytotoxicity flag (confluency mask): not cytotoxic; higher = enhanced IRF activity
# In short: as §1
# RAW-Dual [3] = assay: IRF Lucia reporter activity, fold change vs agonist alone; higher = enhanced IRF activity; conditions: agonist: MPLA (TLR4) […]
# In short: as §1
# [4] = agonist: 3'3'-cGAMP (STING) 10 ug/mL
# [5] = library stock concentration (final ~1000-fold dilution): 10 mM, cytotoxicity flag (confluency mask): not cytotoxic
# [6] = library stock concentration (final ~1000-fold dilution): 10 mM, cytotoxicity flag (confluency mask): cytotoxic (confluency <70% of control)
# [7] = library stock concentration (final ~1000-fold dilution): 10 mM water, cytotoxicity flag (confluency mask): not cytotoxic
smiles,measurement,setting,value
COCCn1c2c([n+](Cc3cnccn3)c1C)C(=O)c1ccccc1C2=O (library stock concentration (final ~1000-fold dilution): 10 mM),IRF Lucia reporter activity,RAW-Dual [1]; [4],0.0183
same,IRF Lucia reporter activity,RAW-Dual [1]; agonist: LPS (TLR4) 0.1 ug/mL,0.0223
O=C1Cc2c([nH]c3ccc(Br)cc23)-c2ncccc2N1 (library stock concentration (final ~1000-fold dilution): 10 mM),IRF Lucia reporter activity,RAW-Dual [2]; [4],0.282
same,IRF Lucia reporter activity,RAW-Dual [2]; agonist: LPS (TLR4) 0.1 ug/mL,0.268
O=C1Cc2c([nH]c3ccc(Br)cc23)-c2ncccc2N1,IRF Lucia reporter activity,RAW-Dual [3]; [5],0.212
COc1ccc2cc(OCC3(C(=O)O)CN(C(=O)c4ccc(F)cc4)C3)ccc2c1 (library stock concentration (final ~1000-fold dilution): 10 mM),IRF Lucia reporter activity,RAW-Dual [2]; [4],1.04
same,IRF Lucia reporter activity,RAW-Dual [2]; agonist: LPS (TLR4) 0.1 ug/mL,1.14
COc1ccc2cc(OCC3(C(=O)O)CN(C(=O)c4ccc(F)cc4)C3)ccc2c1,IRF Lucia reporter activity,RAW-Dual [3]; [5],1.18
COC(=O)C1=C(C)NC(C)=C(C(=O)OCC(C)C)C1c1ccccc1[N+](=O)[O-] (stereo unspecified),IRF Lucia reporter activity,RAW-Dual [3]; [5],0.508
COC(=O)C1=C(C)NC(C)=C(C(=O)OCC(C)C)C1c1ccccc1[N+](=O)[O-] (stereo unspecified) (library stock concentration (final ~1000-fold dilution): 10 mM),IRF Lucia reporter activity,RAW-Dual [2]; [4],0.585
same,IRF Lucia reporter activity,RAW-Dual [2]; agonist: LPS (TLR4) 0.1 ug/mL,0.872
N=C(N)NCCCC(N)C(=O)NC(CCCNC(=N)N)C(=O)NC(CCCNC(=N)N)C(=O)NC(CCCNC(=N)N)C(=O)NC(CCCNC(=N)N)C(=O)NC(CCCNC(=N)N)C(=O)NC(CCCNC(=N)N)C(=O)NC(CCCNC(=N)N)C(=O)NC(CCCNC(=N)N)C(=O)NC(CS)C(=O)NC(CCC(N)=O)C(=O)NC(CS)C(=O)NC(CCCNC(=N)N)C(=O)NC(CCCNC(=N)N)C(=O)NC(CCCCN)C(=O)NC(CC(N)=O)C(=O)O (stereo unspecified) (library stock concentration (final ~1000-fold dilution): 10 mM water),IRF Lucia reporter activity,RAW-Dual [2]; [4],0.977
same,IRF Lucia reporter activity,RAW-Dual [2]; agonist: LPS (TLR4) 0.1 ug/mL,0.488
C(#Cc1nc2ncccc2nc1OCCN1CCCC1)c1ccccc1 (library stock concentration (final ~1000-fold dilution): 10 mM),IRF Lucia reporter activity,RAW-Dual [1]; [4],0.0185
same,IRF Lucia reporter activity,RAW-Dual [1]; agonist: LPS (TLR4) 0.1 ug/mL,0.0176
C(#Cc1nc2ncccc2nc1OCCN1CCCC1)c1ccccc1,IRF Lucia reporter activity,RAW-Dual [3]; [6],0.0252
CCC(C)CC(C)CCCCCCCCC(=O)NC1CC(O)C(NCCN)NC(=O)C2C(O)CCN2C(=O)C(C(O)CCN)NC(=O)C(C(O)C(O)c2ccc(O)cc2)NC(=O)C2CC(O)CN2C(=O)C(C(C)O)NC1=O (stereo unspecified),IRF Lucia reporter activity,RAW-Dual [3]; [7],1.21
CCC(C)CC(C)CCCCCCCCC(=O)NC1CC(O)C(NCCN)NC(=O)C2C(O)CCN2C(=O)C(C(O)CCN)NC(=O)C(C(O)C(O)c2ccc(O)cc2)NC(=O)C2CC(O)CN2C(=O)C(C(C)O)NC1=O (stereo unspecified) (library stock concentration (final ~1000-fold dilution): 10 mM water),IRF Lucia reporter activity,RAW-Dual [2]; [4],0.923
same,IRF Lucia reporter activity,RAW-Dual [2]; agonist: LPS (TLR4) 0.1 ug/mL,0.909
CC(=O)ON=C1C(c2c(O)[nH]c3cc(Br)ccc23)=Nc2ccccc21 (library stock concentration (final ~1000-fold dilution): 10 mM),IRF Lucia reporter activity,RAW-Dual [2]; [4],0.948
same,IRF Lucia reporter activity,RAW-Dual [2]; agonist: LPS (TLR4) 0.1 ug/mL,0.0378
CC(C(=O)O)c1ccc(C(=O)c2cccs2)cc1 (stereo unspecified),IRF Lucia reporter activity,RAW-Dual [3]; [5],0.796
CC(C(=O)O)c1ccc(C(=O)c2cccs2)cc1 (stereo unspecified) (library stock concentration (final ~1000-fold dilution): 10 mM),IRF Lucia reporter activity,RAW-Dual [2]; [4],1.14
same,IRF Lucia reporter activity,RAW-Dual [2]; agonist: LPS (TLR4) 0.1 ug/mL,1.07
CN1CCN(c2nc(C3=C(c4c[nH]c5ccccc45)C(=O)NC3=O)c3ccccc3n2)CC1 (library stock concentration (final ~1000-fold dilution): 10 mM),IRF Lucia reporter activity,RAW-Dual [1]; [4],0.0964
same,IRF Lucia reporter activity,RAW-Dual [1]; agonist: LPS (TLR4) 0.1 ug/mL,0.337
CN1CCN(c2nc(C3=C(c4c[nH]c5ccccc45)C(=O)NC3=O)c3ccccc3n2)CC1,IRF Lucia reporter activity,RAW-Dual [3]; [6],0.385
COc1cc2ncnc(Nc3ccc(F)c(Cl)c3)c2cc1OCCCN1CCOCC1 (library stock concentration (final ~1000-fold dilution): 10 mM),IRF Lucia reporter activity,RAW-Dual [1]; [4],0.703
same,IRF Lucia reporter activity,RAW-Dual [1]; agonist: LPS (TLR4) 0.1 ug/mL,0.943
COc1cc2ncnc(Nc3ccc(F)c(Cl)c3)c2cc1OCCCN1CCOCC1,IRF Lucia reporter activity,RAW-Dual [3]; [6],0.922
CN1CCN(Cc2ccc(NC(=O)Nc3ccc(Oc4ccnc(N)n4)cc3)cc2C(F)(F)F)CC1 (library stock concentration (final ~1000-fold dilution): 10 mM),IRF Lucia reporter activity,RAW-Dual [1]; [4],0.0139
same,IRF Lucia reporter activity,RAW-Dual [1]; agonist: LPS (TLR4) 0.1 ug/mL,0.0154
CC[N+](CC)(CC)CCOc1cccc(OCC[N+](CC)(CC)CC)c1OCC[N+](CC)(CC)CC,IRF Lucia reporter activity,RAW-Dual [3]; [5],1
CC[N+](CC)(CC)CCOc1cccc(OCC[N+](CC)(CC)CC)c1OCC[N+](CC)(CC)CC (library stock concentration (final ~1000-fold dilution): 10 mM),IRF Lucia reporter activity,RAW-Dual [2]; [4],0.993
same,IRF Lucia reporter activity,RAW-Dual [2]; agonist: LPS (TLR4) 0.1 ug/mL,1.07
CSCCNc1nc(SCCC(F)(F)F)nc2c1ncn2C1OC(COP(=O)(O)OP(=O)(O)C(Cl)(Cl)P(=O)(O)O)C(O)C1O (stereo unspecified) (library stock concentration (final ~1000-fold dilution): 10 mM water),IRF Lucia reporter activity,RAW-Dual [2]; [4],1.33
same,IRF Lucia reporter activity,RAW-Dual [2]; agonist: LPS (TLR4) 0.1 ug/mL,1.03
CSCCNc1nc(SCCC(F)(F)F)nc2c1ncn2C1OC(COP(=O)(O)OP(=O)(O)C(Cl)(Cl)P(=O)(O)O)C(O)C1O (stereo unspecified),IRF Lucia reporter activity,RAW-Dual [3]; [7],1.4
Cn1cc(-c2ccc(S(=O)(=O)n3ccc(/C=C/C(=O)Nc4ccccc4N)c3)cc2)cn1,IRF Lucia reporter activity,RAW-Dual [3]; [6],0.681
Cn1cc(-c2ccc(S(=O)(=O)n3ccc(/C=C/C(=O)Nc4ccccc4N)c3)cc2)cn1 (library stock concentration (final ~1000-fold dilution): 10 mM),IRF Lucia reporter activity,RAW-Dual [1]; [4],0.0173
same,IRF Lucia reporter activity,RAW-Dual [1]; agonist: LPS (TLR4) 0.1 ug/mL,0.578
